Data published in PMC7311467.
Like-named read-outs stand apart in the source and are kept apart here. These are yes or no findings as the source states them, for the method shown. Binding seen in cells or lysates may run through a third protein. Some binding calls cover weakened binding; strength is not graded here. For part of these data: Sequences can lack the tags named with a protein.

Chains of the proteins cited; added tags and fusions are not shown. Lines headed by an entry give the natural chain unless they say otherwise; changes in a name come on top. A line that says so, or that is headed by a name, gives the form on record, which may keep a tag or linker.
UniProt O75928: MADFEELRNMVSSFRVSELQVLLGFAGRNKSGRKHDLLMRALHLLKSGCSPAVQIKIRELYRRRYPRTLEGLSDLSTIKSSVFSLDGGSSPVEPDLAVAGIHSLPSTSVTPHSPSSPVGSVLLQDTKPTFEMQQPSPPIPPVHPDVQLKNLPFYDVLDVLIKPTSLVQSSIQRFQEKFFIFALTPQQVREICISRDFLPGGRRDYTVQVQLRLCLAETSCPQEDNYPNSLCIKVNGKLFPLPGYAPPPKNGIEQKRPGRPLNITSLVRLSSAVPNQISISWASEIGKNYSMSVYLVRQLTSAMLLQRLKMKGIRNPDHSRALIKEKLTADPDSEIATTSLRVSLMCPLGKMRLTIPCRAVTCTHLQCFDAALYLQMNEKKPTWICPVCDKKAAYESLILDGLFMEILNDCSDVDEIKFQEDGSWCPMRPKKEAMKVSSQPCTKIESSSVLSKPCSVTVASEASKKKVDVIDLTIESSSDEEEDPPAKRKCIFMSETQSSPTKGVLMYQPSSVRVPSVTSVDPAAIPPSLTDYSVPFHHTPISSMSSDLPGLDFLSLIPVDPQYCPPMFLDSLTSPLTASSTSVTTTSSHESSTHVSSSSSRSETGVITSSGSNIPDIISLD
3MYC-PIAS2α (O75928-2, form named): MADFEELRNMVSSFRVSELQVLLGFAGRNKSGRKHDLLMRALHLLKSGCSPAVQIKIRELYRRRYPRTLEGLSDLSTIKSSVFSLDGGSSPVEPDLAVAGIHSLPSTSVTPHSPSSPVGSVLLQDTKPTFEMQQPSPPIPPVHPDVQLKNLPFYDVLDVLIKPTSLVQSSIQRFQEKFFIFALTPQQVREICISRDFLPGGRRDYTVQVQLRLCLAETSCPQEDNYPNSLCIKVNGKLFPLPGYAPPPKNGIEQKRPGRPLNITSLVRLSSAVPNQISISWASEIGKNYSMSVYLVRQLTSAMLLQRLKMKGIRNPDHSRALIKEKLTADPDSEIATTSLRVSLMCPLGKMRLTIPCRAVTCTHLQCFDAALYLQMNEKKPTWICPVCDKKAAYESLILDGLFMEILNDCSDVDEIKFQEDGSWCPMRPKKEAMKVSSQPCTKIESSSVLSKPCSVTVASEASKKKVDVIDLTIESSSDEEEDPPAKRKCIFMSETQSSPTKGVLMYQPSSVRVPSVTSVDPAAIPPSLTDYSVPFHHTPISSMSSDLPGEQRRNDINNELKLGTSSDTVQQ
UniProt Q9BQ15: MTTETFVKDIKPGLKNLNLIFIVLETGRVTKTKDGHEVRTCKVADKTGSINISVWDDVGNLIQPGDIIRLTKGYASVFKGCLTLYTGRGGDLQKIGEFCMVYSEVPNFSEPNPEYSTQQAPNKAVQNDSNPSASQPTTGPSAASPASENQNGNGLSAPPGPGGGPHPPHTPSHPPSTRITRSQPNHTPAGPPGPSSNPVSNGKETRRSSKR
UniProt O75925: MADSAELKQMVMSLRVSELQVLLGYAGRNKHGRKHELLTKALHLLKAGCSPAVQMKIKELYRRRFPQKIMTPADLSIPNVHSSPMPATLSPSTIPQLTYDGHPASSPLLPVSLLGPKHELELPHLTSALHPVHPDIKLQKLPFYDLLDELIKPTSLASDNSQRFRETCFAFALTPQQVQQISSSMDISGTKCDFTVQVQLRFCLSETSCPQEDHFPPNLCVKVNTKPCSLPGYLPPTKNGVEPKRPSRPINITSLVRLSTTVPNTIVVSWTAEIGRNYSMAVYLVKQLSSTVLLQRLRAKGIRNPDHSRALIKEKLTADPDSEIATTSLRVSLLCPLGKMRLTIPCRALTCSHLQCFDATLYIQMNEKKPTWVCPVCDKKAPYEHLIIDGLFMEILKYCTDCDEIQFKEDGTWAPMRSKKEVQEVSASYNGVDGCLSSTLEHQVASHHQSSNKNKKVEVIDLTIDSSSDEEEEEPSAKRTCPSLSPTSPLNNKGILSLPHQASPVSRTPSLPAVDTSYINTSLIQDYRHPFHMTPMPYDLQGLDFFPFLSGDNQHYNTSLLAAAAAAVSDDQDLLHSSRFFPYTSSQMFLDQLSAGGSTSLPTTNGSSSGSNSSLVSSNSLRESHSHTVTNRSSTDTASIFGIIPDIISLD
UniProt Q9H4L4: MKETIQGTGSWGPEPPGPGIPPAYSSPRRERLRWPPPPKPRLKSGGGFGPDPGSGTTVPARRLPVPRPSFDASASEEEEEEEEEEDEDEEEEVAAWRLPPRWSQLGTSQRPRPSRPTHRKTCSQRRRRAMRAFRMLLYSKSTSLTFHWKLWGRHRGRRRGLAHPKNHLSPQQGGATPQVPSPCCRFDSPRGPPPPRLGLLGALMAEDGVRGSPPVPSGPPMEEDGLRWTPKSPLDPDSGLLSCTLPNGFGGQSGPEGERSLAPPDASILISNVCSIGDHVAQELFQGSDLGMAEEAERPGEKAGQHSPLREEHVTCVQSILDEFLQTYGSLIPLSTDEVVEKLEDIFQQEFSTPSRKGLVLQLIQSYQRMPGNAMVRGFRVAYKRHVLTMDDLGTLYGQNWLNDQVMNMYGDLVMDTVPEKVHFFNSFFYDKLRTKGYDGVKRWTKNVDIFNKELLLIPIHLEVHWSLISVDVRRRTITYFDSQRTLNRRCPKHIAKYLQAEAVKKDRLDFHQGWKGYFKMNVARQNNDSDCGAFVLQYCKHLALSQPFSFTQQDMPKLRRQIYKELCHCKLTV

T1: 3MYC-SENP2 (UniProt Q9HC62)
T1 sequence: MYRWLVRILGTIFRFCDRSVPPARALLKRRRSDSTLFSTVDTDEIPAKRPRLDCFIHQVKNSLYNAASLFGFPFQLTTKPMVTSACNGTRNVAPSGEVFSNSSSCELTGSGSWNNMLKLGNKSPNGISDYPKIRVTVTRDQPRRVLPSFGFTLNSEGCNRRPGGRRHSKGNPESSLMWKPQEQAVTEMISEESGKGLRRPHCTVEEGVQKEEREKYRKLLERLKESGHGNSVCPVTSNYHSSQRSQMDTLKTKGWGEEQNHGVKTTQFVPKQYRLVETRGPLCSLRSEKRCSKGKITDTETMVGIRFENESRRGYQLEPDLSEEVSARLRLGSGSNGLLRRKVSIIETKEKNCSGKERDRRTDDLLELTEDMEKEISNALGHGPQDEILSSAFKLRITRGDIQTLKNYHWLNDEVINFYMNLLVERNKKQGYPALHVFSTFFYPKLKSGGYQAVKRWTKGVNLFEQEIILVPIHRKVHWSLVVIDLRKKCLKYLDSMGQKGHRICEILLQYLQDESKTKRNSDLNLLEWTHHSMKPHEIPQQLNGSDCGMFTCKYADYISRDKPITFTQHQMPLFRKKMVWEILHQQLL


Assays:
[1] = molecular target: 3MYC-PIAS2α (UniProt O75928); assay: co-IP; reciprocal IP: HEK293T co-transfected for 48 h, RIPA lysate, anti-MYC-agarose overnight at 4 °C, five washes with RIPA, western blot
[2] = molecular target: T1, 3MYC-SENP2; assay: as above
[3] = molecular target: FLAG-hSSB1 (human single-stranded DNA-binding protein 1), wild type (human) (UniProt Q9BQ15); assay: co-IP; HEK293T co-transfected for 48 h, RIPA lysate, anti-FLAG-agarose overnight at 4 °C, five washes with RIPA, western blot
[4] = molecular target: hSSB1, endogenous (human (endogenous in HEK293T)) (UniProt Q9BQ15); assay: co-IP; endogenous proteins: HEK293T RIPA lysate, anti-hSSB1 antibody (IgG as control) 2 h at 4 °C, protein A/G-agarose overnight, four washes with RIPA, western blot
[5] = molecular target: FLAG-hSSB1 (human single-stranded DNA-binding protein 1), wild type (human) (UniProt Q9BQ15); assay: co-IP; HEK293T co-transfected for 48 h, RIPA lysate, anti-FLAG-agarose overnight at 4 °C, five washes with RIPA, western blot; remark: listed apart in the source

| Molecule | binding [5] | further results |
| --- | --- | --- |
| FLAG-hSSB1 (human single-stranded DNA-binding protein 1), wild type (from UniProt Q9BQ15 1-211) |  | binding [1]: binds; binding [2]: binds |
| PIAS1 (from UniProt O75925 1-651) (enzyme) |  | binding [3]: no binding |
| 3MYC-PIAS2α (from UniProt O75928-2 1-572) (enzyme) |  | binding [3]: binds |
| PIAS2, endogenous (from UniProt O75928 1-621) (enzyme) |  | binding [4]: binds |
| SENP3 (from UniProt Q9H4L4 1-574) (enzyme) |  | binding [3]: no binding |
| 3MYC-SENP2 (enzyme, UniProt Q9HC62 1-589) MYRWLVRILGTIFRFCDRSVPPARALLKRRRSDSTLFSTVDTDEIPAKRPRLDCFIHQVKNSLYNAASLFGFPFQLTTKPMVTSACNGTRNVAPSGEVFSNSSSCELTGSGSWNNMLKLGNKSPNGISDYPKIRVTVTRDQPRRVLPSFGFTLNSEGCNRRPGGRRHSKGNPESSLMWKPQEQAVTEMISEESGKGLRRPHCTVEEGVQKEEREKYRKLLERLKESGHGNSVCPVTSNYHSSQRSQMDTLKTKGWGEEQNHGVKTTQFVPKQYRLVETRGPLCSLRSEKRCSKGKITDTETMVGIRFENESRRGYQLEPDLSEEVSARLRLGSGSNGLLRRKVSIIETKEKNCSGKERDRRTDDLLELTEDMEKEISNALGHGPQDEILSSAFKLRITRGDIQTLKNYHWLNDEVINFYMNLLVERNKKQGYPALHVFSTFFYPKLKSGGYQAVKRWTKGVNLFEQEIILVPIHRKVHWSLVVIDLRKKCLKYLDSMGQKGHRICEILLQYLQDESKTKRNSDLNLLEWTHHSMKPHEIPQQLNGSDCGMFTCKYADYISRDKPITFTQHQMPLFRKKMVWEILHQQLL | binds |  |

Continued, in another order:

| binding [5] | Molecule | further results |
| --- | --- | --- |
| no binding | PIAS4 (enzyme, UniProt Q8N2W9 1-510) MAAELVEAKNMVMSFRVSDLQMLLGFVGRSKSGLKHELVTRALQLVQFDCSPELFKKIKELYETRYAKKNSEPAPQPHRPLDPLTMHSTYDRAGAVPRTPLAGPNIDYPVLYGKYLNGLGRLPAKTLKPEVRLVKLPFFNMLDELLKPTELVPQNNEKLQESPCIFALTPRQVELIRNSRELQPGVKAVQVVLRICYSDTSCPQEDQYPPNIAVKVNHSYCSVPGYYPSNKPGVEPKRPCRPINLTHLMYLSSATNRITVTWGNYGKSYSVALYLVRQLTSSELLQRLKTIGVKHPELCKALVKEKLRLDPDSEIATTGVRVSLICPLVKMRLSVPCRAETCAHLQCFDAVFYLQMNEKKPTWMCPVCDKPAPYDQLIIDGLLSKILSECEDADEIEYLVDGSWCPIRAEKERSCSPQGAILVLGPSDANGLLPAPSVNGSGALGSTGGGGPVGSMENGKPGADVVDLTLDSSSSSEDEEEEEEEEEDEDEEGPRPKRRCPFQKGLVPAC |  |
| no binding | SENP7 (enzyme, UniProt Q9BQF6 1-1050) MDKRKLGRRPSSSEIITEGKRKKSSSDLSEIRKMLNAKPEDVHVQSPLSKFRSSERWTLPLQWERSLRNKVISLDHKNKKHIRGCPVTSKSSPERQLKVMLTNVLWTDLGRKFRKTLPRNDANLCDANKVQSDSLPSTSVDSLETCQKLEPLRQSLNLSERIPRVILTNVLGTELGRKYIRTPPVTEGSLSDTDNLQSEQLSSSSDGSLESYQNLNPHKSCYLSERGSQRSKTVDDNSAKQTAHNKEKRRKDDGISLLISDTQPEDLNSGSRGCDHLEQESRNKDVKYSDSKVELTLISRKTKRRLRNNLPDSQYCTSLDKSTEQTKKQEDDSTISTEFEKPSENYHQDPKLPEEITTKPTKSDFTKLSSLNSQELTLSNATKSASAGSTTETVENSNSIDIVGISSLVEKDENELNTIEKPILRGHNEGNQSLISAEPIVVSSDEEGPVEHKSSEILKLQSKQDRETTNENESTSESALLELPLITCESVQMSSELCPYNPVMENISSIMPSNEMDLQLDFIFTSVYIGKIKGASKGCVTITKKYIKIPFQVSLNEISLLVDTTHLKRFGLWKSKDDNHSKRSHAILFFWVSSDYLQEIQTQLEHSVLSQQSKSSEFIFLELHNPVSQREELKLKDIMTEISIISGELELSYPLSWVQAFPLFQNLSSKESSFIHYYCVSTCSFPAGVAVAEEMKLKSVSQPSNTDAAKPTYTFLQKQSSGCYSLSITSNPDEEWREVRHTGLVQKLIVYPPPPTKGGLGVTNEDLECLEEGEFLNDVIIDFYLKYLILEKASDELVERSHIFSSFFYKCLTRKENNLTEDNPNLSMAQRRHKRVRTWTRHINIFNKDYIFVPVNESSHWYLAVICFPWLEEAVYEDFPQTVSQQSQAQQSQNDNKTIDNDLRTTSTLSLSAEDSQSTESNMSVPKKMCKRPCILILDSLKAASVQNTVQNLREYLEVEWEVKLKTHRQFSKTNMVDLCPKVPKQDNSSDCGVYLLQYVESFFKDPIVNFELPIHLEKWFPRHVIKTKREDIRELILKLHLQQQKGSSS |  |
| no binding | SENP6 (enzyme, UniProt Q9GZR1 1-1112) MAAGKSGGSAGEITFLEALARSESKRDGGFKNNWSFDHEEESEGDTDKDGTNLLSVDEDEDSETSKGKKLNRRSEIVANSSGEFILKTYVRRNKSESFKTLKGNPIGLNMLSNNKKLSENTQNTSLCSGTVVHGRRFHHAHAQIPVVKTAAQSSLDRKERKEYPPHVQKVEINPVRLSRLQGVERIMKKTEESESQVEPEIKRKVQQKRHCSTYQPTPPLSPASKKCLTHLEDLQRNCRQAITLNESTGPLLRTSIHQNSGGQKSQNTGLTTKKFYGNNVEKVPIDIIVNCDDSKHTYLQTNGKVILPGAKIPKITNLKERKTSLSDLNDPIILSSDDDDDNDRTNRRESISPQPADSACSSPAPSTGKVEAALNENTCRAERELRSIPEDSELNTVTLPRKARMKDQFGNSIINTPLKRRKVFSQEPPDALALSCQSSFDSVILNCRSIRVGTLFRLLIEPVIFCLDFIKIQLDEPDHDPVEIILNTSDLTKCEWCNVRKLPVVFLQAIPAVYQKLSIQLQMNKEDKVWNDCKGVNKLTNLEEQYIILIFQNGLDPPANMVFESIINEIGIKNNISNFFAKIPFEEANGRLVACTRTYEESIKGSCGQKENKIKTVSFESKIQLRSKQEFQFFDEEEETGENHTIFIGPVEKLIVYPPPPAKGGISVTNEDLHCLNEGEFLNDVIIDFYLKYLVLEKLKKEDADRIHIFSSFFYKRLNQRERRNHETTNLSIQQKRHGRVKTWTRHVDIFEKDFIFVPLNEAAHWFLAVVCFPGLEKPKYEPNPHYHENAVIQKCSTVEDSCISSSASEMESCSQNSSAKPVIKKMLNKKHCIAVIDSNPGQEESDPRYKRNICSVKYSVKKINHTASENEEFNKGESTSQKVADRTKSENGLQNESLSSTHHTDGLSKIRLNYSDESPEAGKMLEDELVDFSEDQDNQDDSSDDGFLADDNCSSEIGQWHLKPTICKQPCILLMDSLRGPSRSNVVKILREYLEVEWEVKKGSKRSFSKDVMKGSNPKVPQQNNFSDCGVYVLQYVESFFENPILSFELPMNLANWFPPPRMRTKREEIRNIILKLQEDQSKEKRKHKDTYSTEAPLGEGTEQYVNSISD |  |
| no binding | SENP5 (enzyme, UniProt Q96HI0 1-755) MKKQRKILWRKGIHLAFSEKWNTGFGGFKKFYFHQHLCILKAKLGRPVTWNRQLRHFQGRKKALQIQKTWIKDEPLCAKTKFNVATQNVSTLSSKVKRKDAKHFISSSKTLLRLQAEKLLSSAKNSDHEYCREKNLLKAVTDFPSNSALGQANGHRPRTDPQPSDFPMKFNGESQSPGESGTIVVTLNNHKRKGFCYGCCQGPEHHRNGGPLIPKKFQLNQHRRIKLSPLMMYEKLSMIRFRYRILRSQHFRTKSKVCKLRKAQRSWVQKVTGDHQETRRENGEGGSCSPFPSPEPKDPSCRHQPYFPDMDSSAVVKGTNSHVPDCHTKGSSFLGKELSLDEAFPDQQNGSATNAWDQSSCSSPKWECTELIHDIPLPEHRSNTMFISETEREIMTLGQENQTSSVSDDRVKLSVSGADTSVSSVDGPVSQKAVQNENSYQMEEDGSLKQSILSSELLDHPYCKSPLEAPLVCSGLKLENQVGGGKNSQKASPVDDEQLSVCLSGFLDEVMKKYGSLVPLSEKEVLGRLKDVFNEDFSNRKPFINREITNYRARHQKCNFRIFYNKHMLDMDDLATLDGQNWLNDQVINMYGELIMDAVPDKVHFFNSFFHRQLVTKGYNGVKRWTKKVDLFKKSLLLIPIHLEVHWSLITVTLSNRIISFYDSQGIHFKFCVENIRKYLLTEAREKNRPEFLQGWQTAVTKCIPQQKNDSDCGVFVLQYCKCLALEQPFQFSQEDMPRVRKRIYKELCECRLMD |  |
| no binding | PIAS3 (enzyme, UniProt Q9Y6X2 1-628) MAELGELKHMVMSFRVSELQVLLGFAGRNKSGRKHELLAKALHLLKSSCAPSVQMKIKELYRRRFPRKTLGPSDLSLLSLPPGTSPVGSPGPLAPIPPTLLAPGTLLGPKREVDMHPPLPQPVHPDVTMKPLPFYEVYGELIRPTTLASTSSQRFEEAHFTFALTPQQVQQILTSREVLPGAKCDYTIQVQLRFCLCETSCPQEDYFPPNLFVKVNGKLCPLPGYLPPTKNGAEPKRPSRPINITPLARLSATVPNTIVVNWSSEFGRNYSLSVYLVRQLTAGTLLQKLRAKGIRNPDHSRALIKEKLTADPDSEVATTSLRVSLMCPLGKMRLTVPCRALTCAHLQSFDAALYLQMNEKKPTWTCPVCDKKAPYESLIIDGLFMEILSSCSDCDEIQFMEDGSWCPMKPKKEASEVCPPPGYGLDGLQYSPVQGGDPSENKKKVEVIDLTIESSSDEEDLPPTKKHCSVTSAAIPALPGSKGVLTSGHQPSSVLRSPAMGTLGGDFLSSLPLHEYPPAFPLGADIQGLDLFSFLQTESQHYGPSVITSLDEQDALGHFFQYRGTPSHFLGPLAPTLGSSHCSATPAPPPGRVSSIVAPGGALREGHGGPLPSGPSLTGCRSDIISLD |  |
